Numbering of substitutions follows the chain as printed. Numbers in names are those of the source. ± gives the standard deviation of the averaged measurements. Laboratory Escherichia coli strains with one amino-acid change in an essential protein, pooled on minimal glucose agar with carbenicillin or gentamicin at twice the control MIC (plus kanamycin and chloramphenicol for the plasmids), 48 h. Fold change of barcode share against drug-free plates; higher = less susceptible. Active = above 20 in both replicates (the paper's putatively resistant). '<' = one read or none on drug, '>' = one read or none on a drug-free plate. Shares are relative, so most strains fall below 1 when a few take over. Listed are strains with at least 15 reads on both drug-free plates, and hits; most hits rest on fewer reference reads. Replicate rank correlation about 0.5. Edits are read from barcodes. Bounds are passed on as bounds.

The values that follow come from the supplement of paper PMC11876631.

The chains are these.
B1: murF V103A (protein)
chain: MISVTLSQLTDILNGELQGADITLDAVTTDTRKLTPGCLFVALKGERFDAHDFADQAKAGGAGALLVSRPLDIDLPQLIVKDTRLAFGELAAWVRQQVPARVAALTGSSGKTSVKEMTAAILSQCGNTLYTAGNLNNDIGVPMTLLRLTPEYDYAVIELGANHQGEIAWTVSLTRPEAALVNNLAAAHLEGFGSLAGVAKAKGEIFSGLPENGIAIMNADNNDWLNWQSVIGSRKVWRFSPNAANSDFTATNIHVTSHGTEFTLQTPTGSVDVLLPLPGRHNIANALAAAALSMSVGATLDAIKAGLANLKAVPGRLFPIQLAENQLLLDDSYNANVGSMTAAVQVLAEMPGYRVLVVGDMAELGAESEACHVQVGEAAKAAGIDRVLSVGKQSHAISTASGVGEHFADKTALITRLKLLIAEQQVITILVKGSRSAAMEEVVRALQENGTC
B2: murF V357Q (protein)
chain: B1 chain with A103V, V357Q
B3: murF V442A (protein)
chain: B1 chain with A103V, V442A
B4: murF V41P (protein)
chain: B1 chain with V41P, A103V
B5: murF V357W (protein)
chain: B1 chain with A103V, V357W
B6: murF L347D (protein)
chain: B1 chain with A103V, L347D
B7: murF V41W (protein)
chain: B1 chain with V41W, A103V
B8: murF V41A (protein)
chain: B1 chain with V41A, A103V
B9: murF V357A (protein)
chain: B1 chain with A103V, V357A
B10: murE W381Q (protein)
chain: MADRNLRDLLAPWVPDAPSRALREMTLDSRVAAAGDLFVAVVGHQADGRRYIPQAIAQGVAAIIAEAKDEATDGEIREMHGVPVIYLSQLNERLSALAGRFYHEPSDNLRLVGVTGTNGKTTTTQLLAQWSQLLGEISAVMGTVGNGLLGKVIPTENTTGSAVDVQHELAGLVDQGATFCAMEVSSHGLVQHRVAALKFAASVFTNLSRDHLDYHGDMEHYEAAKWLLYSEHHCGQAIINADDEVGRRWLAKLPDAVAVSMEDHINPNCHGRWLKATEVNYHDSGATIRFSSSWGDGEIESHLMGAFNVSNLLLALATLLALGYPLADLLKTAARLQPVCGRMEVFTAPGKPTVVVDYAHTPDALEKALQAARLHCAGKLQCVFGCGGDRDKGKRPLMGAIAEEFADVAVVTDDNPRTEEPRAIINDILAGMLDAGHAKVMEGRAEAVTCAVMQAKENDVVLVAGKGHEDYQIVGNQRLDYSDRVTVARLLGVIA
B11: asnS F38W (protein)
chain: MSVVPVADVLQGRVAVDSEVTVRGWVRTRRDSKAGISWLAVYDGSCFDPVQAVINNSLPNYNEDVLRLTTGCSVIVTGKVVASPGQGQQFEIQASKVEVAGWVEDPDTYPMAAKRHSIEYLREVAHLRPRTNLIGAVARVRHTLAQALHRFFNEQGFFWVSTPLITASDTEGAGEMFRVSTLDLENLPRNDQGKVDFDKDFFGKESFLTVSGQLNGETYACALSKIYTFGPTFRAENSNTSRHLAEFWMLEPEVAFANLNDIAGLAEAMLKYVFKAVLEERADDMKFFAERVDKDAVSRLERFIEADFAQVDYTDAVTILENCGRKFENPVYWGVDLSSEHERYLAEEHFKAPVVVKNYPKDIKAFYMRLNEDGKTVAAMDVLAPGIGEIIGGSQREERLDVLDERMLEMGLNKEDYWWYRDLRRYGTVPHSGFGLGFERLIAYVTGVQNVRDVIPFPRTPRNASF

In one data set the target is Escherichia coli (laboratory strain). Put plainly: barcode share on antibiotic plates over drug-free plates; higher = less susceptible. The note with it: antibiotic: carbenicillin; 2× MIC (3.1 µg/mL). Here is the method: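 A pool of E. coli strains, each edited to carry one amino-acid change in an essential protein, was grown for 48 h on minimal glucose agar with or without antibiotic; strain barcodes were sequenced; mean of two replicates.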
Turning to B1, the “fold change of barcode share” value is 0.369 ± 0.043.

As to B2, the “fold change of barcode share” value is 0.0277 ± 0.014.

Regarding B3, the “fold change of barcode share” value amounted to 0.35 ± 0.14.

Regarding B4, the “fold change of barcode share” value was determined as 0.147 ± 0.062.

For B5, the “fold change of barcode share” value was 0.0485 ± 0.044.

In the case of B6, the “fold change of barcode share” value amounted to 0.0483 ± 0.018.

Turning to B7, the “fold change of barcode share” value came to 0.211 ± 0.013.

Take B8: the “fold change of barcode share” value was 0.52 ± 0.33.

As to B9, the “fold change of barcode share” value was 0.351 ± 0.033.

For B10, the “fold change of barcode share” value came to 0.509 ± 0.44.

With B11, the “fold change of barcode share” value stood at 0.337 ± 0.059.

Staying with this data set, now noted: antibiotic: gentamicin; 2× MIC (MIC 0.45 µg/mL).
Turning to B1, the “fold change of barcode share” value was determined as 0.104 ± 0.13.

Consider B3, for which the “fold change of barcode share” value was below 0.00973.

For B4, the “fold change of barcode share” value is below 0.00743.

For B7, the “fold change of barcode share” value was below 0.0119.

In the case of B8, the “fold change of barcode share” value is below 0.012.

Turning to B9, the “fold change of barcode share” value came to 0.00351 ± 0.00052.
